The whole screen tested about 370,000 compounds, of which about 150 (0.041%) were called active. The shares of active, inactive and inconclusive entries below differ from those in the screen. Calls come from the whole dose curve; as a rule, active = well fitted inhibition curve with a large enough effect; inconclusive = small, poorly fitted or top-dose-only effect; inactive = flat fitted curve, though single readings scatter. No potency is given beside an inconclusive call; the fits are too rough.
biological target: Beta-lactamase (Escherichia coli (strain K12)) (UniProt P00811); assay: qHTS Inhibitors of AmpC Beta-Lactamase (assay with detergent); conditions: AmpC hydrolysis of nitrocefin, absorbance 480 nm, 0.01% Triton; series mostly up to 114 µM; note: nearly all actives have a fitted effect of over 25% in size
In short: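 20 mM phosphate pH 7.0 + 0.01% (detergent screen) or 0.0001% Triton X-100; 5.3 nM AmpC reagent; cpd preinc 15 min RT; nitrocefin (800 uM stock) to start; A480 q20 s × 4 min; Activity was normalised to no-enzyme and no-compound control wells.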
Potency is the fitted concentration of half-maximal effect; tags give direction and shape of the fitted curve.

UniProt P00811, sequence (P00811 whole entry, looked up): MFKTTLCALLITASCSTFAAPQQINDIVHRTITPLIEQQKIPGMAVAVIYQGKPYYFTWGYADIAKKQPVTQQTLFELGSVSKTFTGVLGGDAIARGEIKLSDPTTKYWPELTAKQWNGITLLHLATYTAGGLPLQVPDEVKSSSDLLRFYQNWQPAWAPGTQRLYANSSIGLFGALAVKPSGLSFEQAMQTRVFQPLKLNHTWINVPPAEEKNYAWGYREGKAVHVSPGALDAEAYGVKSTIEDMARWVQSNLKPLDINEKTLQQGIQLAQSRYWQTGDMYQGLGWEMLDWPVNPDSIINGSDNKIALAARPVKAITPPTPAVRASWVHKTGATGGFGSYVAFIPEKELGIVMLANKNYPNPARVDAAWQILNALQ

SMILES | Potency
CCc1ccc2c(c1)C(=O)C[C@]1(CCC[C@H](C)C1)O2 | inconclusive [inhibitor, full curve, poor fit]
CC(C)(C)OC(=O)NCCCC[C@@H](C(=O)NCCCCCCCCCCC(=O)N1CCN(C(=O)OC(C)(C)C)CC1)n1cc(CCO)nn1 | inconclusive [inhibitor, partial curve]
CC(=O)c1ccc(S(=O)(=O)N2CCN(c3nn(C)c(=O)n(C)c3=O)CC2)cc1 | inconclusive [inhibitor, full curve, poor fit]
O=C(NCCCn1ccnc1)/C(=C\c1cccnc1)NC(=O)c1ccccc1F | inconclusive [inhibitor, full curve, poor fit]
O=c1cc(-c2ccc(F)cc2)[nH][nH]1 | inactive
N#Cc1ccc2c(c1)C[C@]1(c3ccsc3)Oc3c(c(=O)oc4ccc(F)cc34)C2O1 | inconclusive [inhibitor, partial curve]
CCCCNC(=O)c1ccc(N2CCC3(CC2)OCCO3)c([N+](=O)[O-])c1 | inconclusive [inhibitor, partial curve, poor fit]
CCc1ccccc1N(C)C(=O)c1sc2nc3n(c(=O)c2c1C)CCCCC3 | inactive
Cc1ccc2nc(SCC(=O)Nc3ncccn3)[nH]c2c1 | inactive
CS(=O)(=O)N1CCN(C(=S)NCc2ccc(Cl)cc2)CC1 | inconclusive [inhibitor, full curve, poor fit]
N/N=C(\c1ccccc1)c1cc(Cl)ccc1N | inconclusive [inhibitor, full curve]
CCCCc1c(C)nc2cc(-c3ccco3)[nH]n2c1=O | inconclusive [inhibitor, partial curve, poor fit]
Cc1cc(/C=N/n2cnnc2)c(C)n1-c1ccc(OCc2ccccc2F)cc1 | inactive
CCc1cccc(CC)c1NC(=S)NCCc1c(C)[nH]c2ccc(C)cc12 | inactive
CC1CCCN(CCCNC(=O)c2cc3c(Cl)nc4ccccc4c3s2)C1 (configuration not stated) | inactive
COc1ccc(-c2nc(NCCCN(C)C)c3ccccc3n2)cc1 | inconclusive [inhibitor, full curve]
O=C(NCc1cccs1)c1ccc(CSc2nc3ccncc3n2Cc2ccccc2F)cc1 | inactive
CCN(CC)CCNC(=O)c1cc(S(=O)(=O)N2CCc3ccccc32)cn1C | inconclusive [inhibitor, full curve, poor fit]
Cc1ccc(C(=O)CSc2nnc(-c3ccco3)n2Cc2ccccc2)cc1 | inconclusive [inhibitor, full curve, poor fit]
CCC(=O)N1CCc2cc(S(=O)(=O)NC(C(=O)NCCc3cccc(C)c3)C(C)C)ccc21 (configuration not stated) | inconclusive [inhibitor, single point]
CC(C)C(NC(=O)c1ccc(Cl)cc1)C(=O)NC1=NCCS1 (configuration not stated) | inactive
COc1ccc(CNC(=O)Cn2c(-c3ccccc3)cc(C(C)=O)c2C)cc1OC | inactive
CCOc1ccc(N2CC(NS(=O)(=O)c3cccs3)CC2=O)cc1 (configuration not stated) | inconclusive [inhibitor, full curve, poor fit]

SMILES | Potency
COc1ccc(CSc2nnc(C)n2N)cc1Br | inconclusive [inhibitor, full curve, poor fit]
NC(=O)CCn1c(C(=O)c2cccc([N+](=O)[O-])c2)c2ccccc2[n+]1[O-] | inconclusive [inhibitor, partial curve, poor fit]
COc1ccc(N2CC(NC(=O)/C=C\c3ccccc3)CC2=O)cc1OC (configuration not stated) | inactive
CCOC(=O)c1nn(-c2ccc(OC)cc2)c(=O)c2c(N)scc12 | inconclusive [inhibitor, full curve, poor fit]
Cc1cccc(NC(=O)[C@H](Cc2c[nH]c3ccccc23)NC(=O)[C@@H]2Cc3ccccc3CN2)c1 | inconclusive [inhibitor, single point]
COc1ccc(CCNC(=O)c2sc3cc(C)ccc3c2Cl)cc1 | inactive
COc1ccc(OC)c(NC(=O)CCNC(=O)c2ccco2)c1 | inconclusive [inhibitor, single point]
Cc1ccc(/C=N/NC(=O)Cc2c(F)cccc2Cl)s1 | inactive
Cc1cccc(C)c1NC(=S)N(CCN(C)C)Cc1cccs1 | inconclusive [inhibitor, single point]
CCN(Cc1ccncc1)C(=O)CCc1nnc(CCc2ccccc2OC)o1 | inconclusive [inhibitor, single point]
CN(C(=O)CC1C(=O)NCCN1CC1CCCCC1)C1CCOCC1 (configuration not stated) | inactive
CCOc1ccc(N2C(=O)c3ccc(C(=O)OCc4c(C)noc4C)cc3C2=O)cc1 | inconclusive [inhibitor, full curve, poor fit]
O=C(CS(=O)(=O)c1ccc(F)cc1)N1CCN(c2ccccc2)CC1 | inconclusive [inhibitor, partial curve]
CCN(CC)CCCNc1cc(C)nc2cc(-c3cccs3)nn12 | inactive
Cc1nc(SCC(=O)NCc2ccccc2)c2c(=O)n(C)c(=O)n(C)c2n1 | inconclusive [inhibitor, full curve, poor fit]
COCCNC(=O)c1cc(-c2cccs2)on1 | inconclusive [inhibitor, partial curve]
Fc1ccccc1N1CCN(C2CCCN(Cc3ccccc3C(F)(F)F)C2)CC1 (configuration not stated) | inconclusive [inhibitor, full curve, poor fit]
CNc1nc(C)c(C(=O)c2ccc(Cl)cc2)s1 | inconclusive [inhibitor, full curve, poor fit]
CCc1cccc(C)c1NC(=O)c1cnn(-c2ccc(OC)cc2)c1C1CCN(C(=O)OC(C)(C)C)CC1 | inactive
COCc1ccc(O)c2ncccc12 | inactive
COc1ccc(OC)c(-c2nn(-c3ccccc3)cc2C(=O)NCC(c2cccs2)N2CCOCC2)c1 (configuration not stated) | inconclusive [inhibitor, full curve, poor fit]
COc1ccc(NC(=O)COCC(=O)Nc2ccc(C)cc2)cc1 | inconclusive [inhibitor, full curve, poor fit]
O=C(N/N=C/c1cccc2ccccc12)C(=O)N1CCCC1 | inconclusive [inhibitor, full curve, poor fit]

SMILES | Potency
CC(OC(=O)c1cc(=O)[nH]c2ccccc12)C(=O)NCc1ccccc1 (configuration not stated) | inconclusive [inhibitor, full curve]
CCC1C(c2ccccc2)NC(c2ccccc2)CC1(O)c1ccc(F)cc1 (configuration not stated) | inactive
COc1ccc2oc(=O)c(C(=O)N3CCN(C(=O)c4ccccc4)CC3)cc2c1 | inconclusive [inhibitor, partial curve, poor fit]
CCCn1c(C2CCCN2c2nc(-c3ccc(C)cc3)cs2)nc2ccccc21 (configuration not stated) | inconclusive [inhibitor, full curve, poor fit]
COc1ccccc1C(=O)NC(C(=O)NCCc1nc2ccccc2[nH]1)=C(C)C | inconclusive [inhibitor, full curve, poor fit]
COc1ccc(S(=O)(=O)N(C)CC(=O)N2CCN(C)CC2)cc1Cl | inconclusive [inhibitor, full curve, poor fit]
CN1C(=O)Nc2cccc3cccc1c23 | inconclusive [inhibitor, single point]
COc1cc(OC)cc(C(=O)Oc2ccc(/C=N/Nc3nc4ccccc4s3)cc2OC)c1 | inactive
Cc1cc(C)c(S(=O)(=O)NCC(c2ccco2)S(=O)(=O)c2cccs2)c(C)c1 (configuration not stated) | inactive
Cc1cccc(C)c1NC(=O)COC(=O)c1cc(=O)[nH]c2ccccc12 | inconclusive [inhibitor, full curve, poor fit]
Cc1cc(-c2ccc(/C=N/n3cnnc3)o2)ccc1Cl | inactive
O=C(C1=C[C@@H](c2ccc(C(F)(F)F)cc2)C[C@@H](OCc2ccc(CO)cc2)O1)N1CCN(Cc2ccccc2)CC1 | inactive
O=C(CCSc1nnc(-c2ccco2)o1)Nc1ccc(Cl)cc1 | inconclusive [inhibitor, full curve, poor fit]
CC(C)Oc1ccc(CNC(=O)c2ccc(NC(=O)N3CC(C)Sc4ccccc43)cc2)cc1 (configuration not stated) | inactive
O=C(CSc1nnc(-c2cccs2)n1-c1ccccc1)N1CCCc2ccccc21 | inactive
O=C(Cc1cccs1)Nc1nnc(-c2ccccc2)s1 | inactive
CCNc1nc2[nH]c(=O)c3c(c2s1)OC(N)=C(C#N)C3c1ccc(C)cc1 (configuration not stated) | inconclusive [inhibitor, partial curve, poor fit]
Cc1ccc(S(=O)(=O)N2CCC(=O)N(CCOC(=O)Nc3ccc(F)cc3)CC2)cc1 | inconclusive [inhibitor, full curve, poor fit]
COc1cc(CN2CCC(C(=O)N3CCN(c4ccccc4F)CC3)CC2)cc(OC)c1O | inconclusive [inhibitor, full curve, poor fit]
C=CCn1c(COc2cccc(C)c2)nnc1SCC(=O)NC(=O)NCc1ccco1 | inconclusive [inhibitor, partial curve]
CC(=O)N1c2ccc(S(=O)(=O)NC(CC(=O)O)c3ccc(Br)cc3)cc2CC1C (configuration not stated) | inconclusive [inhibitor, partial curve, poor fit]

— PubChem BioAssay AID485294 (National Center for Advancing Translational Sciences (NCATS), 2010)
